# Measurements: the supplement of paper PMC3334620
# In all, about 33,000 sequences were measured (“E-score (-0.5 to 0.5)”: median about -0.056, highest 2% from about 0.38 on). Some of the results follow.
# Target: Stb4 (UniProt P50104)
# Experiment: PBM E-score (8-mer binding enrichment) (E-score (-0.5 to 0.5)); higher = stronger / more preferred TF binding; most listed sequences are background and not binding sites
# Settings: protein concentration: 200 nM; construct: GST-DNA-binding domain
# In short: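 Detection of bound protein used fluorescent anti-GST, with scans normalised by masliner. The proteins were GST-tagged yeast transcription factors applied at about 100-200 nM to universal all-10-mer Agilent arrays made double-stranded by primer extension. Each ungapped eight-base word, pooled with its reverse complement, was scored with an E-score from the Universal PBM Analysis Suite.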
row,Sequence,PBM E-score
1,GACACCGA,0.16
2,AGCAGCTA,-0.247
3,AACATAAG,0.0445
4,AACCCACC,0.137
5,CACTCAGG,-0.181
6,GATACTTA,0.113
7,CCAATCGA,-0.207
8,TGGCAGAA,-0.125
9,CCCTGTTC,-0.112
10,GATCCCCA,-0.0239
11,CGAATCTA,-0.0261
12,CAACTGGG,-0.134
13,GAGCACAC,-0.207
14,ATCTCGCG,-0.0115
15,CTTCCAAG,-0.132
16,GTTGCATA,-0.069
17,ATATGGAC,-0.185
18,CCCATTCC,0.104
19,GCAGGCCC,-0.0954
20,CTTCAACC,-0.0399
21,AAGATTAG,-0.11
22,AAACTCCC,0.212

row,Sequence,PBM E-score
1,AATCGCTA,-0.134
2,CCTAAAGC,-0.246
3,TGAACTCA,-0.222
4,GCCCTGAA,-0.131
5,GGGAGTAC,0.0576
6,ATCCATAC,-0.121
7,ACCCAACG,-0.0446
8,ATGAAATA,0.0478
9,GGGTAGAA,0.173
10,ACACCGTC,0.0889
11,AGCGCCCG,0.122
12,CTAGTAGA,0.0929
13,CTTGGGAA,-0.0852
14,CACGGCCC,0.0623
15,AATAGAAC,-0.0574
16,GCGTTGAA,-0.047
17,CCGCGCCA,0.0769
18,CAGTTGAC,-0.0683
19,ATTTTCGA,-0.256
20,GATGTCCC,0.183
21,GCCTTAGC,-0.222
22,GTGGTCTA,-0.185

row,Sequence,PBM E-score
1,CCTAACCC,-0.149
2,GTCAGGAC,-0.21
3,AACTAGAA,-0.167
4,ACGATGCT,-0.0738
5,CCCCTAAG,-0.195
6,GAATTGGA,-0.05
7,CGTTGCCC,-0.0386
8,CATGAACC,0.136
9,CACGTAGC,-0.259
10,TGACTCCA,-0.326
11,TTAATAAA,0.123
12,AACCGCGT,0.11
13,CTAGGAGA,-0.223
14,CACGTTCG,0.0411
15,ATACAAAC,0.0662
16,ATAGGCCG,0.122
17,CACAGGTC,-0.152
18,GTACTTAA,-0.176
19,AACGAACA,0.135
20,GGCGCCGA,0.317
21,AGCCTGCC,-0.0282
22,TCCAAAAA,0.0234

row,Sequence,PBM E-score
1,CAACGTCA,-0.0925
2,GAGACCGA,0.222
3,GTAATGGA,-0.0497
4,GACCATGC,0.00952
5,AAGACTTC,-0.0792
6,CCGTCAGG,0.025
7,CCGATACG,0.307
8,ACTCCTGG,-0.243
9,AGTGGTGC,0.0506
10,AGGTGAGC,-0.145
11,ACCCCCTG,-0.244
12,GCCTGACC,-0.162
13,AGTGACCG,0.0828
14,GCCTAGGC,-0.221
15,ACGTCTAG,-0.155
16,CCTGGCTC,-0.141
17,ACTCACGG,0.163
18,CCGACGAA,0.333
19,CAGTAAGA,-0.133
20,ACCGTGGA,0.0746
